# Measurements as given in a collection of fitness landscapes (doi:10.1126/science.1257360).
# Some of the results follow.
# B1: PhoQ; a variant is named by its letters at X, in order, P23837 (parent)
# chain: MKKLLRLFFPLSLRVRFLLATAAVVLVLSLAYGMVALIGYSVSFDKTTFRLLRGESNLFYTLAKWENNKLHVELPENIDKQSPTMTLIYDENGQLLWAQRDVPWLMKMIQPDWLKSNGFHEIEADVNDTSLLLSGDHSIQQQLQEVREDDDDAEMTHSVAVNVYPATSRMPKLTIVVVDTIPVELKSSYMVWSWFIYVLSANLLLVIPLLWVAAWWSLRPIEALAKEVRELEEHNRELLNPATTRELTSLVRNLNRLLKSERERYDKYRTTLTDLTHSLKTPLXXLQXXLRSLRSEKMSVSDAEPVMLEQISRISQQIGYYLHRASMRGGTLLSRELHPVAPLLDNLTSALNKVYQRKGVNISLDISPEISFVGEQNDFVEVMGNVLDNACKYCLEFVEISARQTDEHLYIVVEDDGPGIPLSKREVIFDRGQRVDTLRPGQGVGLAVAREITEQYEGKIVAGESMLGGARMEVIFGRQHSAPKDE
# Variants of: B1
# Experiment: enrichment ratio after two sorts for PhoP signalling (ratio (wild type AVST 3.29)); higher = more functional
# Details: with PhoP (E. coli)
row,Variant,enrichment ratio
1,EPTV,≤ 0.25
2,HRHL,≤ 0.25
3,GPSN,≤ 0.25
4,YPPL,≤ 0.25
5,QGPP,≤ 0.25
6,TCNW,≤ 0.25
7,PPAA,≤ 0.25
8,YMAS,≤ 0.25
9,DVGN,≤ 0.25
10,QFYC,≤ 0.25
11,YKKF,≤ 0.25
12,RIHD,≤ 0.25
13,FFPE,≤ 0.25
14,EYQD,≤ 0.25
15,SKQI,≤ 0.25
16,FENI,≤ 0.25
17,DYDV,≤ 0.25
18,VDKQ,≤ 0.25
19,YPPP,≤ 0.25
20,EISP,≤ 0.25
21,LMLH,≤ 0.25
22,RNPL,≤ 0.25
23,IKDT,≤ 0.25
24,SKPM,≤ 0.25
25,EFGS,≤ 0.25
26,SRRI,≤ 0.25

row,Variant,enrichment ratio
1,GYEK,≤ 0.25
2,MKAI,≤ 0.25
3,TPQF,≤ 0.25
4,MPDC,≤ 0.25
5,PPRR,≤ 0.25
6,VMFN,≤ 0.25
7,PLTE,≤ 0.25
8,IHFA,≤ 0.25
9,RKYA,≤ 0.25
10,KPRG,≤ 0.25
11,VCTM,23
12,SHAQ,≤ 0.25
13,TIGW,1.07
14,NDLE,≤ 0.25
15,DKLR,≤ 0.25
16,HSSL,0.798
17,KNYN,≤ 0.25
18,AQLA,19
19,ITGI,≤ 0.25
20,WPCT,≤ 0.25
21,MTDA,≤ 0.25
22,LLEN,≤ 0.25
23,FVMF,2.56
24,MQND,≤ 0.25
25,LCKM,≤ 0.25
26,IPCY,≤ 0.25

row,Variant,enrichment ratio
1,DFAS,≤ 0.25
2,NIFT,≤ 0.25
3,LMCS,≤ 0.25
4,KIVL,≤ 0.25
5,SGTP,≤ 0.25
6,EHVF,≤ 0.25
7,CSRP,≤ 0.25
8,LSES,≤ 0.25
9,PWDA,≤ 0.25
10,YLMK,≤ 0.25
11,LADS,1.25
12,MNFP,≤ 0.25
13,TGAV,17.1
14,MKDL,≤ 0.25
15,HAFK,≤ 0.25
16,MPLP,≤ 0.25
17,KATA,≤ 0.25
18,HQPY,≤ 0.25
19,ALVN,13.7
20,AMNM,≤ 0.25
21,FEPQ,≤ 0.25
22,SFMC,≤ 0.25
23,GESF,0.55
24,VTKI,≤ 0.25
25,RQYK,≤ 0.25
26,SHLV,6.04

row,Variant,enrichment ratio
1,IGSD,≤ 0.25
2,PSSA,≤ 0.25
3,SSQM,3.62
4,AWVS,≤ 0.25
5,KIAV,≤ 0.25
6,GQKR,≤ 0.25
7,NVRV,≤ 0.25
8,THSV,7.68
9,PSYN,0.446
10,YSVW,≤ 0.25
11,TVMV,5.14
12,HCLF,≤ 0.25
13,HPMM,≤ 0.25
14,WRAY,≤ 0.25
15,FIYG,≤ 0.25
16,PRYR,≤ 0.25
17,SITG,16.2
18,TDQV,4.18
19,FLRM,≤ 0.25
20,RMVT,≤ 0.25
21,WSGK,≤ 0.25
22,RWSC,≤ 0.25
23,QNGM,16
24,PNYG,≤ 0.25
25,FFPS,≤ 0.25
26,TSGL,7.2

row,Variant,enrichment ratio
1,MRKR,≤ 0.25
2,GCSM,5
3,EGGH,≤ 0.25
4,NTAH,≤ 0.25
5,VMRR,≤ 0.25
6,PSHY,0.663
7,WTVT,≤ 0.25
8,PYKP,≤ 0.25
9,WVRT,≤ 0.25
10,WNDF,≤ 0.25
11,AQIM,2.44
12,HGPR,≤ 0.25
13,TAMI,7.97
14,VYSL,≤ 0.25
15,RMHS,≤ 0.25
16,YPEP,≤ 0.25
17,EQNH,≤ 0.25
18,TKMF,11.5
19,GKNT,≤ 0.25
20,KIRP,≤ 0.25
21,IIGS,≤ 0.25
22,HDVN,≤ 0.25
23,ACNG,≤ 0.25
24,MKDT,≤ 0.25
25,DWKP,≤ 0.25
26,KAFC,≤ 0.25

row,Variant,enrichment ratio
1,RKFD,≤ 0.25
2,NIKR,≤ 0.25
3,PNTG,≤ 0.25
4,YFFH,≤ 0.25
5,GYRN,≤ 0.25
6,DALA,≤ 0.25
7,PDVW,≤ 0.25
8,VSFP,≤ 0.25
9,SAHA,≤ 0.25
10,MQPW,≤ 0.25
11,FMPQ,≤ 0.25
12,MHID,≤ 0.25
13,IDSF,≤ 0.25
14,APNK,≤ 0.25
15,SGEC,≤ 0.25
16,GFMI,≤ 0.25
17,ERDN,≤ 0.25
18,FGCS,≤ 0.25
19,NTMS,≤ 0.25
20,KNCG,≤ 0.25
21,HWPT,≤ 0.25
22,TCAV,13.4
23,DTMK,≤ 0.25
